Earlier results in patent USRE41288E1, “Metabolic intervention with GLP-1 or its biologically active analogues to improve the function of the ischemic and reperfused brain” (Amylin Pharmaceuticals, Inc., priority 1998, dated 2010).

Columns and labels:
[1] = test system: pancreas
[2] = global ischemia models
[3] = transient focal cerebral ischemia models

Glu Gly Thr Phe Thr Ser Asp Val Ser Ser Tyr Leu Glu Gly Gln Ala Ala Lys Glu Phe Ile Ala Trp Leu Val Lys Gly Arg (NH2) (EGTFTSDVSSYLEGQAAKEFIAWLVKGR-NH2; listed as Homo sapiens) [SEQ ID NO:6]
stimulation of production or release of insulin from the pancreas [1]: do not stimulate the production or release of insulin from the pancreas

tissue plasminogen activator [tPA]
improvement in clinical outcome (some, but not all, of the controlled trials, acute ischemic stroke): 30-55% | risk of intracranial hemorrhage (tPA-treated group vs. 0.64% placebo, half of which were fatal): 6.4%

Glu Gly Thr Phe Thr Ser Asp Val Ser Ser Tyr Leu Glu Gly Gln Ala Ala Lys Glu Phe Ile Ala Trp Leu Val Lys Gly Arg Gly (EGTFTSDVSSYLEGQAAKEFIAWLVKGRG; listed as Homo sapiens) [SEQ ID NO:5]
stimulation of production or release of insulin from the pancreas [1]: do not stimulate the production or release of insulin from the pancreas

insulin
protective effect (infarct size, neurological deficit, metabolic recovery) [2]: remarkable protective effect | protective effect (infarct volume, extent of cerebral necrosis) [3]: strong protective effect

Where no end group is shown, it is not given here.
